# Test results as given in paper PMC4336329 (PLoS ONE, 2015).
# About 2,200 (0.71%) of roughly 310,000 compounds showed an effect of 50% or more. The effect is printed as a negative number. The list shows a part of the results.
# Target: human ether-à-go-go-related gene (hERG) potassium channel (human, UniProt Q12809)
# Experiment: primary screen, population patch clamp on CHO cells stably expressing hERG
# Chain of human ether-à-go-go-related gene (hERG) potassium channel (Q12809 whole entry, looked up): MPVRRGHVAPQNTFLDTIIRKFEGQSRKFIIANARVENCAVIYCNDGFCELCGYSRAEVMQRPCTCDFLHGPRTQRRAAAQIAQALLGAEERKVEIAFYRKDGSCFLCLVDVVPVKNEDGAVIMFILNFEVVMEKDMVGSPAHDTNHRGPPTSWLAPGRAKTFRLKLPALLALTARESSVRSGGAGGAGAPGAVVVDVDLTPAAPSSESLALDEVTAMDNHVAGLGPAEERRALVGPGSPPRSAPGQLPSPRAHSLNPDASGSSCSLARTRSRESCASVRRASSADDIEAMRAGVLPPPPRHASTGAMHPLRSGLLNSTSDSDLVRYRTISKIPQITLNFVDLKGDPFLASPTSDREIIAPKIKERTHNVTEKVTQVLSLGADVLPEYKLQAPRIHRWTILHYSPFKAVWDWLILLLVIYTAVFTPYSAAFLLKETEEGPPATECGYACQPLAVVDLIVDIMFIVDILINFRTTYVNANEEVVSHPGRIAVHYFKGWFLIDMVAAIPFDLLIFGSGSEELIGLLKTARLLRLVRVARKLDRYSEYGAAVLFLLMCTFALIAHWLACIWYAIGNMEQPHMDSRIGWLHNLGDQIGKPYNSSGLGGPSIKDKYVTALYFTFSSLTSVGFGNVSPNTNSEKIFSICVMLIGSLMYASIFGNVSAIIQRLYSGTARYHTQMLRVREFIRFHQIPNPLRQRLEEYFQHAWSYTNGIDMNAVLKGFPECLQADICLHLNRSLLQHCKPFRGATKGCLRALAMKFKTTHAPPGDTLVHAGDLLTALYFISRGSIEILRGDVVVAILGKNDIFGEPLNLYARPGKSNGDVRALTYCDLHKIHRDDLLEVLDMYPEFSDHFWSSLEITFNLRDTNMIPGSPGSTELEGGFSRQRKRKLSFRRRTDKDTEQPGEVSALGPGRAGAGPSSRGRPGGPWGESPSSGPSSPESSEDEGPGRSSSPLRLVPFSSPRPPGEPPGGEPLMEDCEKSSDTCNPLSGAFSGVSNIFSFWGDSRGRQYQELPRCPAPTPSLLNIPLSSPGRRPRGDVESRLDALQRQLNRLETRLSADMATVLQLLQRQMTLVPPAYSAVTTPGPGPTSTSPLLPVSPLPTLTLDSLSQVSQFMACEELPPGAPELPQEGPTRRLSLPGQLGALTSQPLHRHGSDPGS
row,Compound,"hERG current change (%, negative = inhibition) at 1uM"
1,CC1(C)Cc2c(cnn2-c2ccccc2)C(NC(=O)CCCN2CCCCC2=O)C1 (stereo not shown),16.5%
2,CCN1CCN(CC(=O)N2N=C(c3cccs3)CC2c2ccc(C)cc2)C(=O)C1=O (stereo not shown),-3.57%
3,COc1ccccc1CNC(=O)C/C(C)=N/NC(=O)Cc1ccccc1,-4.5%
4,Cc1ccc(NC(=O)CCCC(=O)O)c(-c2nc3ccccc3[nH]c2=O)c1,8.56%
5,CCOC(=O)c1c(S(=O)(=O)NCC(=O)Nc2cccc(C)c2)c(C)n(C)c1C,18.6%
6,O=C(O)c1[nH]c2ccc(Cl)cc2c1CC(=O)N1CCN(c2ccccc2)CC1,12.8%
7,CC(C)(C)c1ccccc1OCCOCCSc1ncccn1,2.49%
8,O=C(c1cc(-c2ccccc2)on1)N1CCCc2ccccc21,8.2%
9,COc1ccccc1NC(=O)CN1C(=O)COc2ccc(S(=O)(=O)N3CCCCCC3)cc21,12.3%
10,CCCCCOc1ccc(NC(=O)CSc2cccc3cccnc23)cc1,16.3%
11,COc1ccc(C2=NOC(CNC(=S)N3CCOCC3)C2)cc1 (stereo not shown),10.6%
12,COc1ccc2c(c1)c(CC(=O)OCC(=O)O)c(C)n2C(=O)c1ccc(Cl)cc1,-2.36%
13,CCCCCN(C(=O)CCC(=O)OCc1cccc(Cl)c1)c1c(N)n(CCCC)c(=O)[nH]c1=O,9.55%
14,NNC(=O)CN1C(c2ccc(Cl)cc2)=Nc2ccc(Br)cc2C1c1ccccc1 (stereo not shown),-17.2%
15,C=CCN1C(=O)c2ccc(C(=O)N3CCN(c4ccccc4OC)CC3)cc2C1=O,7.1%
16,CC(C)C1Cc2c(C#N)c(N)sc(=S)c2CO1 (stereo not shown),0.897%
17,O=C(N/N=C/c1ccncc1)c1ccc(COc2cccc3cccnc23)cc1,-22.9%
18,CCCOc1ccc(NC(=O)OC2CCN(C)CC2)cc1.O=C(O)/C=C/C(=O)O,-0.599%
19,O=C(NCCc1ccc(Cl)cc1)c1cnccn1,11.8%
20,CC(=O)OC1C([N+]2(C)CCCCC2)C[C@H]2C3CC[C@H]4C[C@H](OC(C)=O)C([N+]5(C)CCCCC5)CC4(C)[C@H]3CCC12C.[Br-] (stereo partly shown),8.82%
21,Cc1ccc2nsnc2c1S(=O)(=O)Nc1ccccc1C(=O)O,4.93%
22,CC(OC(=O)Cc1c(F)cccc1Cl)C(=O)NC1(C#N)CCCCC1 (stereo not shown),-11.4%
23,CCOc1ccc(N(CC(=O)NCCOc2ccccc2OC)S(=O)(=O)c2ccccc2)cc1,3.23%
24,Cc1ccc(N2C(=O)N(CC(=O)Nc3ccc(C)cc3[N+](=O)[O-])C(=O)C2C)cc1 (stereo not shown),13.6%
25,Clc1cccc2c1CCN(Cc1nc(-c3cnccn3)no1)C2,11.9%
26,COc1cc(/C=C/C(=O)OCC(=O)NC2CCS(=O)(=O)C2)ccc1O (stereo not shown),7.58%
27,Cc1ccc(-n2c(C)cc(/C=C3/C(=O)NC(=O)N(Cc4ccco4)C3=O)c2C)cc1,16.5%
28,CCO[C@H]1OC(C(=O)N2CCOCC2)=C[C@@H](C2CC2)[C@@H]1CCCO,16.1%

row,Compound,"hERG current change (%, negative = inhibition) at 1uM"
1,CC1CCN(S(=O)(=O)c2ccccc2)CC1,8.5%
2,FCCCOc1ccc(-c2nccc(-c3ccc(F)cc3)n2)cc1,5.11%
3,CN(Cc1ccc(Cl)s1)C(=O)CCl,-22.8%
4,Cc1cc(N/N=C/c2ccccc2Cl)nc(NCc2ccccc2)n1,10.7%
5,CC(C)CCn1c(N)c(S(=O)(=O)c2cccs2)c2nc3ccccc3nc21,-7.19%
6,Cc1cc(OCC(=O)Nc2cc(S(=O)(=O)N3CCOCC3)ccc2N2CCCC2)ccc1C(C)C,5.09%
7,COc1ccccc1-c1cc(C(=O)NC2CCN(C)CC2)c2ccc(Cl)c(C)c2n1,7.38%
8,COc1cccc(NC2=NCCCS2)c1,7.06%
9,CCOC(=O)c1c(C)nn(-c2ccc(NC(=O)c3c(C)noc3C)cc2)c1C,19.5%
10,CCn1c(SCC(=O)Nc2ccc3c(c2)OCCO3)nnc1C(C)C,2.5%
11,CCCCCCn1c(-c2cccs2)n[nH]c1=S,7.13%
12,CCCc1[nH]nc2c1C(c1ccc(OC(=O)N3CCOCC3)cc1)C(C#N)=C(N)O2 (stereo not shown),9.16%
13,NS(=O)(=O)c1ccc(CCN2C(=O)/C(=C\c3ccc(Cl)cc3)SC2=S)cc1,13.9%
14,Cc1ccc(C)c(NS(=O)(=O)c2cc(C(=O)N3CCCC3)ccc2Cl)c1,9.6%
15,CCN(CC)c1ccc(/C=N/OCC(=O)N2CCCc3ccccc32)cc1,39.7%
16,COc1cccc(C(=O)Cn2c(N3CCOCC3)nc3c2c(=O)n(C)c(=O)n3C)c1,15.5%
17,COc1cc(NC(=O)COc2cccc(C)c2C)ccc1NC(=O)c1ccco1,15.6%
18,Cc1ccc(-n2ncc3c2ncn2c(C)nnc32)cc1C,2.23%
19,O=C(NCCc1ccccc1)c1ccccc1F,22.4%
20,O=C1CCC/C(=N/NC(=O)c2sc3ccccc3c2Cl)C1,8.96%
21,Cc1ccc(Nc2nc(C)nc3c2oc2ccccc23)cc1,11.5%
22,CC(=O)c1cc(-c2ccc(F)cc2)n(CCC(=O)NC(C)(C)C)c1C,7.75%
23,COC(=O)c1ccccc1NC(=O)c1ccc(COc2cc(C)cc(C)c2)o1,5.13%
24,O=C(N1CCCCCC1)N1CCN(C(=O)N2CCOCC2)CC1,-8.91%
25,COc1c(C)cc(C(=O)C2CCCN(C(=O)Cn3ccc(C)n3)C2)cc1C (stereo not shown),3.51%
26,COc1cc2c(cc1OC)CN(CC(=O)NC(=O)NCc1ccccc1)CC2,-0.579%
27,C=CCc1ccc(O)c(-c2cc(CC=C)ccc2O)c1,12.9%
